# The RNAGym collection of RNA variant scans (doi:10.7554/elife.90254)
# The source gives no read counts; variants with many changes may rest on few reads.
# B1: OR4K15 (parent)
# chain: GUUAACGGUCAUAGGCCAUGGAAACUAGGAGCACCAUUUCGCUGCCAGUGAAGAAAUGAACAAAGAAAAUCUGGGCCAGGCAGGCAUCAAAAGAAAUAGUCUUGCGCUCAACCAGAAAGUCUGUAAUCAUUUUAAGGGUA
# Variants of: B1
# Assay: self-cleavage, relative activity (ratio to wild type); higher = more cleavage; in vitro, sequencing; the parent is a self-cleaving ribozyme
row,Variant,self-cleavage
1,GUUAACGGUCAUAGGCCAUGGAAACUAGGAGCACCAUUUCGCUGCCAGUGAAGAAAUGAACUAAGAAAUUCUGGGCCAGGCAGGCAUCAAAAGAAAUAGUCUUGCGCUCAGCCAGAAAGUCUGUAAUCAUUUUAAGGGUA [A62U A69U A111G],0.01
2,GUUAACGGUCAUAGGCCAUGGAAACUAGGAGCACCAUUUCGCUGCCAGUGAAGAAAUGAACAGAGUAAAUCUGGGCCAGGCAGGCAUCAAAAGAAAUAGUCUUGCGCCCAACCAGAAAGUCUGUAAUCAUUUUAAGGGUA [A63G A66U U108C],0.12
3,GUUAACGGUCAUAGGCCAUGGAAACUAGGAGCACCAUUUCGCUGCCAGUGAAGAAAUGAACAGAGAAAAUCUGGGCCAGGCAGGCAUCAGAAGAAAUAGUCUUGCGCUCAGCCAGAAAGUCUGUAAUCAUUUUAAGGGUA [A63G A90G A111G],0
4,GUUAACGGUCAUAGGCCAUGGAAACUAGGAGCACCAUUUCGCUGCCAGUGAAGAAAUGAACUAAGAAAAUCUGGGCCAGGCAGGCAUCAAAAGAAAUAGUCUUGCGCUCAACCAGAAAGUCUGUAAUCAUCUUAAGGGCA [A62U U131C U139C],1.06
5,GUUAACGGUCAUAGGCCAUGGAAACUAGGAGCACCAUUUCGCUGCCAGUGAAGAAAUGAACUAAGAAAAUCUGGGCCAGGCAGGCAUCAAAAGAAAUAGUCUUGCGCUCUACCAGAAAGUCUGUAAUCAUUUCAAGGGCA [A62U A110U U133C U139C],1.31
6,GUUAACGGUCAUAGGCCAUGGAAACUAGGAGCACCAUUUCGCUGCCAGUGAAGAAAUGAACUAAGAAAAUCUGGGCCAGGCAGGCAUCCAAGGAAAUAGUCUUGCGCUCAACCGGAAAGUCUGUAAUCAUUUUAAGGGUA [A62U A89C A92G A114G],0.14
7,GUUAACGGUCAUAGGCCAUGGAAACUAGGAGCACCAUUUCGCUGCCAGUGAAGAAAUGAACAGGGAAGAUCUGGGCCAGGCAGGCAUCAAAAGAAAUAGUCCUGCGCUCAACCAGAAAGUCUGUAAUCAUUUUAAGGGUA [A63G A64G A68G U102C],1.82
8,GUUAACGGUCAUAGGCCAUGGAAACUAGGAGCACCAUUUCGCUGCCAGUGAAGAAAUGAACAGAGGAAAUCUGGGCCAGGCAGGCAUCAAAAGAAAUAGUCUUGCGCUCAACCAGGAAGUCUGUAAUCAUUUUAAGGGUA [A63G A66G A116G],0.51
9,GUUAACGGUCAUAGGCCAUGGAAACUAGGAGCACCAUUUCGCUGCCAGUGAAGAAAUGAACAGAGAGAAUCUGGGCCAGGCAGGCGUCAAAAGAAAUAGUCUUGCGCUCAACCAGAAAGUCUGUAAUCAUUUUAAGGGUA [A63G A67G A86G],1.4
10,GUUAACGGUCAUAGGCCAUGGAAACUAGGAGCACCAUUUCGCUGCCAGUGAAGAAAUGAACAGAGAAGAUCUGGGCCAGGCAGGCAUCAAAAGAAAUAGUCUUGCGCUCAACCAGAAAGUCUGUAAUCAUCUUAAGGGUA [A63G A68G U131C],1.41
11,GUUAACGGUCAUAGGCCAUGGAAACUAGGAGCACCAUUUCGCUGCCAGUGAAGAAAUGAACUAAGAAAAUCUGGGCCAGCCAGGCACCUAAAGAAAUAGUCUUGCGCUCAACCAGAAAGUCUGUAAUCAUUUUAAGGGUA [A62U G80C U87C A89U],0.06
12,GUUAACGGUCAUAGGCCAUGGAAACUAGGAGCACCAUUUCGCUGCCAGUGAAGAAAUGAACUAAGAAAAUCUGGGCCAGGCAGGCCUCAAAAGAAAUAGUCUUGCGCUCAACCAGAAGGUCUGUAAUCAUUUUAAGGGUA [A62U A86C A118G],0.1
13,GUUAACGGUCAUAGGCCAUGGAAACUAGGAGCACCAUUUCGCUGCCAGUGAAGAAAUGAACAGAGAAAAUCUGGGCCAGGCAGGCAUCGAAAGGAAUAGUCUUGCGCUCAGCCAGAAAGUCUGUAAUCUUUUUAAGGGUA [A63G A89G A94G A111G A129U],0.03
14,GUUAACGGUCAUAGGCCAUGGAAACUAGGAGCACCAUUUCGCUGCCAGUGAAGAAAUGAACAGAGAAAUUCUGGGCCAGGCAGGCAUCAAAAGAAACAGUCUUGCGCUCAACCAGAAAGUCUGUAAUCAUUUUAAGGGUA [A63G A69U U97C],1.56
15,GUUAACGGUCAUAGGCCAUGGAAACUAGGAGCACCAUUUCGCUGCCAGUGAAGAAAUGAACAGAGAGAAUCUGGGCCAGGCAGGCAUCAAAAGAAUUAGUCUUGCGCUCAACCAGAAAGUCUGUAAUCAUUUUAAGGGUA [A63G A67G A96U],2.34
16,GUUAACGGUCAUAGGCCAUGGAAACUAGGAGCACCAUUUCGCUGCCAGUGAAGAAAUGAACUAAGAAAACCUGGGCCAGGCAGGCAUCGAAAGAAGUAGUCUUGCGCUCAACCAGAAAGUCUGUAAUCGUUUUAAGGGUA [A62U U70C A89G A96G A129G],0.09
17,GUUAACGGUCAUAGGCCAUGGAAACUAGGAGCACCAUUUCGCUGCCAGUGAAGAAAUGAACAGAGAAGAUCUGGGCCAGGCAGGCAUCAAAUGAAAUAGUCUUGCGCUCAACCAGAAAGUCUGUAAUCAUUUUAAGGGUA [A63G A68G A92U],1.72
18,GUUAACGGUCAUAGGCCAUGGAAACUAGGAGCACCAUUUCGCUGCCAGUGAAGAAAUGAACAGAGAAGAUCUGGGCCAGGCAGGCAUCAAAAGAAAUAGUCUUGCGCUCAACCAGAAAGUCCGUAAUCAUUUUAAGGGUA [A63G A68G U122C],0.71
19,GUUAACGGUCAUAGGCCAUGGAAACUAGGAGCACCAUUUCGCUGCCAGUGAAGAAAUGAACAGGGAGAAUCUGGGCCAGGCAGGCAUCAAAAGAAAUAGUCUUGCGCUCAACCAGAAAGUCUGUAAUCAUUUUAAGGGUA [A63G A64G A67G],0.93
20,GUUAACGGUCAUAGGCCAUGGAAACUAGGAGCACCAUUUCGCUGCCAGUGAAGAAAUGAACUAAGAAGAUCUGGGCCAGGCAGGCAUCAAAAGAGAUAGUCUUGCGCUCAACCAGAAAGUCUGUAAUCUUUUUAAGGGUA [A62U A68G A95G A129U],1.52
21,GUUAACGGUCAUAGGCCAUGGAAACUAGGAGCACCAUUUCGCUGCCAGUGAAGAAAUGAACACAGAAAAUCUGGGCCAGGCAGGCAUCUAAAGAAAUAGUCUUGCGCCCAACCAGAAAGUCUGUAAUCAUUUUAUGGGUA [A63C A89U U108C A135U],0

row,Variant,self-cleavage
1,GUUAACGGUCAUAGGCCAUGGAAACUAGGAGCACCAUUUCGCUGCCAGUGAAGAAAUGAACAGAGGAAAUCUGGGCCAGGCAGGCAUCAAAAGAAAUAGUCUUGCGCUCAACCAGAAAGUCUGAAAUCAUUUUAAGGGUA [A63G A66G U124A],0.32
2,GUUAACGGUCAUAGGCCAUGGAAACUAGGAGCACCAUUUCGCUGCCAGUGAAGAAAUGAACAGGGAAAAUCUGGGCCAGGCAGGCACCAAAAGGAAUAGUCUUGCGCUCAACCAGAAAGUCUGUAAUCAUUUUAAGGGUA [A63G A64G U87C A94G],1.97
3,GUUAACGGUCAUAGGCCAUGGAAACUAGGAGCACCAUUUCGCUGCCAGUGAAGAAAUGAACUAAGAAAAUCGGGGCCAGGCAGGCACCAAAAGAAAUAGUCUUGCGCUCAACCAGAAAGUCGGUAAUCAUUUUAAGGGUA [A62U U72G U87C U122G],0.18
4,GUUAACGGUCAUAGGCCAUGGAAACUAGGAGCACCAUUUCGCUGCCAGUGAAGAAAUGAACAGAGAAAAUCUGGGCCAGGCUGGCAUCGAAAGAAAUAGUCUUGCGCUCAACCAGAAAGUCUGUAAUCAUUUUAAGGGUA [A63G A82U A89G],0.15
5,GUUAACGGUCAUAGGCCAUGGAAACUAGGAGCACCAUUUCGCUGCCAGUGAAGAAAUGAACAGAGAGAAUCUGGGCCAGGCAGGCAUCAAAAGAAAUAGUCUUGCGCUCAACCAGAAAGUCUGAAAUCAUUUUAAGGGUA [A63G A67G U124A],0.63
6,GUUAACGGUCAUAGGCCAUGGAAACUAGGAGCACCAUUUCGCUGCCAGUGAAGAAAUGAACAGAGAAAAUCUGGGCCAGGCAGGCCUCAAUAGAGAUAGUCUUGCGCUCAACCAGAAAGUCUGUGAUCAUUUUAAGGGUA [A63G A86C A91U A95G A125G],0.45
7,GUUAACGGUCAUAGGCCAUGGAAACUAGGAGCACCAUUUCGCUGCCAGUGAAGAAAUGAACUAAGAAAAUCUGGGCCAGGCAGGCAUCAAAAGAAAUAGUCUUGCGCUCAACCAGGAAGUCUGUAAUCAUUUUAUGGGUA [A62U A116G A135U],0.78
8,GUUAACGGUCAUAGGCCAUGGAAACUAGGAGCACCAUUUCGCUGCCAGUGAAGAAAUGAACUAAGAAAAUCUGGGCCAGGCAGGCACCAAAAGAAAUAGUCUCGCGCUCAACCAGAAAGUCUGUAAUCAUUUUAAGGGUA [A62U U87C U103C],0.94
9,GUUAACGGUCAUAGGCCAUGGAAACUAGGAGCACCAUUUCGCUGCCAGUGAAGAAAUGAACUAAGAAAAUCUGGGCCAGGCAGGCAUCAAAAGAAAUAGUCUUGCGCUCAACCAGAAAGUCAGUAGUCAUUUUAAGGGUA [A62U U122A A126G],1.5
10,GUUAACGGUCAUAGGCCAUGGAAACUAGGAGCACCAUUUCGCUGCCAGUGAAGAAAUGAACAGAGAAAAUCUGGGCCGGGCAGGCAUCAGAAGAAAUAGUCUUGCGCUCAACCAGAAAGUCUGUAAUCAUUUUAAGGGUA [A63G A78G A90G],0.16
11,GUUAACGGUCAUAGGCCAUGGAAACUAGGAGCACCAUUUCGCUGCCAGUGAAGAAAUGAACUAAGAAAAUCUGGGCCAGGCAGGCAUCAAAAGAAAUCGUCUCGCGCUCAACCAGAAAGUCUGUAAUCAUUUUAAGGGUA [A62U A98C U103C],1.52
12,GUUAACGGUCAUAGGCCAUGGAAACUAGGAGCACCAUUUCGCUGCCAGUGAAGAAAUGAACUAAGAAAAUCUGGGCCAGGCAGGCAUCAAAGGAAAUAGUCUUGCGCUCAACCAGAAAGUCUGUAAUCAUUCUAAGGGUA [A62U A92G U132C],0.78
13,GUUAACGGUCAUAGGCCAUGGAAACUAGGAGCACCAUUUCGCUGCCAGUGAAGAAAUGAACAGAGAAAAUCUGGGCCAGGCAGGCAUCCAAAGAAGUAGUCUUGCGCUCAACCAGAAUGUCUGUGAUCAUUUUAAGGGUA [A63G A89C A96G A118U A125G],0.33
14,GUUAACGGUCAUAGGCCAUGGAAACUAGGAGCACCAUUUCGCUGCCAGUGAAGAAAUGAACAGAGAAAAUCUGGGCCAGGCAGGCGUCAAGAGAAAUAGUCUUGCGCUCAACCAGAAAGUCUGUAAUCAUUUUAAGGGUA [A63G A86G A91G],0.05
15,GUUAACGGUCAUAGGCCAUGGAAACUAGGAGCACCAUUUCGCUGCCAGUGAAGAAAUGAACAGAGAAAAUCUGGGCCAGGCAGGCAUCUAAAGAAAUAGUCUUGCGCUCAACCAGGAAGUCUGUAACCAUUUUAAGGGUA [A63G A89U A116G U127C],1.16
16,GUUAACGGUCAUAGGCCAUGGAAACUAGGAGCACCAUUUCGCUGCCAGUGAAGAAAUGAACACAGAAAAUCUGGGCCAGGCAGGCACCAAAAGAAAUAGUCUCGCGCUCAACCAGAAAGUCUGUAAUCAUUUUAAGGGUA [A63C U87C U103C],0.81
17,GUUAACGGUCAUAGGCCAUGGAAACUAGGAGCACCAUUUCGCUGCCAGUGAAGAAAUGAACUAAGAAAAUCUGGGCCAGGCAGGCAUCAAAGGAAAUAGUCUUGCGCUCCACCAGUAAGUCUGUAAUCAUUUUAAGGGUA [A62U A92G A110C A116U],0.09
18,GUUAACGGUCAUAGGCCAUGGAAACUAGGAGCACCAUUUCGCUGCCAGUGAAGAAAUGAACUAAGAAGAUCUGGGCCAGGCAGGCAUCAAAAGAAAUAGUCUUGCGCUCAACCGGGAAGUCAGUAAUCAUUUUAAGGGUA [A62U A68G A114G A116G U122A],0.06
19,GUUAACGGUCAUAGGCCAUGGAAACUAGGAGCACCAUUUCGCUGCCAGUGAAGAAAUGAACAGAGAAGAUCCGGGCCAGGCAGGCAUCAAAAGAAAUAGUCUUGCGCUCAACCAGAAAGUCUGUAAUCAUUUUAAGGGUA [A63G A68G U72C],0.31
20,GUUAACGGUCAUAGGCCAUGGAAACUAGGAGCACCAUUUCGCUGCCAGUGAAGAAAUGAACUAAGAAAAUCUGGGCCAGGCAGGCAUCCAAAGAAAUAGUCUUGUGCUCAACCAGAAAGUCUGUAAUCAUUUUAAGGGUA [A62U A89C C105U],0.28
